Data: the supplement of paper PMC10369915
This is one part of the list. No stated cut-off is given here; in the data, active = 3.2 or more and inactive = the rest. Only a few entries rise above the background.

Key:
Test in all cases: enrichment score (SH2-bound / input frequency) (ratio); bacterial display of known human phosphotyrosine sites (pTyr-Var adds point mutants) read by sequencing; higher = stronger binding; tyrosines were phosphorylated by kinases first
Details in all cases: peptide library: pTyr-Var
SHP2 C-SH2 domain E139D = biological target: SHP2 C-SH2 domain E139D
[1] = biological target: SHP2 C-SH2 domain wild-type
SHP2 N-SH2 domain L43F = biological target: SHP2 N-SH2 domain L43F
SHP2 N-SH2 domain T42A = biological target: SHP2 N-SH2 domain T42A
SHP2 N-SH2 domain T52S = biological target: SHP2 N-SH2 domain T52S
[2] = biological target: SHP2 N-SH2 domain wild-type
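Further: displayed peptides selected on beads carrying the immobilized SH2 domain, with library peptides lacking any tyrosine serving as negative controls.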

| Binder | enrichment score (SHP2 C-SH2 domain E139D) | enrichment score [1] | enrichment score (SHP2 N-SH2 domain L43F) | enrichment score (SHP2 N-SH2 domain T42A) | enrichment score (SHP2 N-SH2 domain T52S) | enrichment score [2] |
| --- | --- | --- | --- | --- | --- | --- |
| FLAVEYHKPHI [IDS_Y225_G224E] | inactive: 1.73 | inactive: 2.07 | inactive: 2.03 | inactive: 3.17 | inactive: 1.75 | inactive: 2.41 |
| SSWPGYVRPLP [HSPB1_Y54] | inactive: 1.01 | inactive: 0.761 | inactive: 0.874 | inactive: 0.918 | inactive: 0.829 | inactive: 0.754 |
| IGCHAYGDQFR [IDH1_Y135_R132C_YF] | inactive: 1.01 | inactive: 1.11 | inactive: 0.95 | inactive: 0.702 | inactive: 1.25 | inactive: 1.14 |
| HILFRYPKEFQ [IDS_Y234_P231L] | inactive: 1.41 | inactive: 0.768 | inactive: 0.805 | inactive: 0.914 | inactive: 0.703 | inactive: 0.71 |
| REETTYLPLTS [ICAM3_Y527_S525T] | inactive: 0.714 | inactive: 0.655 | inactive: 0.746 | inactive: 0.629 | inactive: 0.541 | inactive: 0.775 |
| KNAEKYAEEDW [HSPA9_Y568_R573W] | inactive: 0.662 | inactive: 0.782 | inactive: 0.663 | inactive: 0.453 | inactive: 0.621 | inactive: 0.798 |
| ETAENYLGFTA [HSPA9_Y181_H184Y_YF] | inactive: 0.685 | inactive: 0.731 | inactive: 0.746 | inactive: 0.597 | inactive: 0.584 | inactive: 0.932 |
| AMGPVYQAAAL [HYOU1_Y421_A419P] | inactive: 0.723 | inactive: 0.787 | inactive: 0.77 | inactive: 0.646 | inactive: 0.705 | inactive: 0.759 |
| FLAVGYHMPHI [IDS_Y225_K227M] | active: 3.31 | inactive: 2.62 | inactive: 2.37 | inactive: 3 | inactive: 2.34 | inactive: 3.13 |
| KNAEKYAEEDR [HSPA9_Y568] | inactive: 0.565 | inactive: 0.645 | inactive: 0.436 | inactive: 0.471 | inactive: 0.491 | inactive: 0.745 |
| FPAVGYHKPHI [IDS_Y225_L221P] | inactive: 2.23 | inactive: 2.19 | inactive: 1.97 | inactive: 2.11 | inactive: 1.93 | inactive: 2.11 |
| ETAENYLGYTA [HSPA9_Y181_H184Y] | inactive: 0.743 | inactive: 0.876 | inactive: 0.838 | inactive: 0.661 | inactive: 0.729 | inactive: 0.653 |
| FLAVGYHKLHI [IDS_Y225_P228L] | inactive: 3.13 | active: 3.53 | inactive: 3.18 | inactive: 2.61 | inactive: 2.59 | active: 3.53 |
| RDEHGYISRCF [HSPB1_Y133_Q128R] | inactive: 0.741 | inactive: 0.744 | inactive: 0.82 | inactive: 0.696 | inactive: 0.51 | inactive: 0.887 |
| AAALAYGLDKS [HSPA9_Y230] | inactive: 0.719 | inactive: 0.629 | inactive: 0.714 | inactive: 0.724 | inactive: 0.785 | inactive: 0.736 |
| AKVKPYINGTS [IBTK_Y1064_V1065I] | inactive: 1.18 | inactive: 0.775 | inactive: 1.25 | inactive: 0.72 | inactive: 1.5 | inactive: 1.15 |
| RVDRDYVLKST [HTATIP2_Y111_A116T] | inactive: 0.855 | inactive: 0.845 | inactive: 0.584 | inactive: 0.878 | inactive: 1.05 | inactive: 0.875 |
| FIPFRYPKEFQ [IDS_Y234_H229Y_YF] | inactive: 1.25 | inactive: 0.954 | inactive: 1.21 | inactive: 1.12 | inactive: 1.31 | inactive: 1.29 |
| LMLVLYGRIFL [HTR1A_Y215_R220L] | inactive: 1.34 | inactive: 1.4 | inactive: 1.41 | inactive: 0.917 | inactive: 1.08 | inactive: 1.76 |

| Binder | enrichment score (SHP2 C-SH2 domain E139D) | enrichment score [1] | enrichment score (SHP2 N-SH2 domain L43F) | enrichment score (SHP2 N-SH2 domain T42A) | enrichment score (SHP2 N-SH2 domain T52S) | enrichment score [2] |
| --- | --- | --- | --- | --- | --- | --- |
| RVFRDYVLKSA [HTATIP2_Y111_D108Y_YF] | inactive: 0.866 | inactive: 0.809 | inactive: 0.612 | inactive: 0.992 | inactive: 0.966 | inactive: 0.846 |
| LLREWYMIFSR [HUWE1_Y4066_I4069F] | inactive: 3.18 | active: 3.34 | inactive: 2.98 | inactive: 2.73 | inactive: 3.02 | inactive: 3.08 |
| RKIMGYSIRTI [IDS_Y490_I485R] | inactive: 1.04 | inactive: 0.765 | inactive: 0.643 | inactive: 1 | inactive: 0.881 | inactive: 0.667 |
| CFTRQYTLPPG [HSPB1_Y142_K141Q] | inactive: 0.543 | inactive: 0.611 | inactive: 0.57 | inactive: 0.563 | inactive: 0.456 | inactive: 0.839 |
| AMGAVYQAAAL [HYOU1_Y421] | inactive: 1.02 | inactive: 0.854 | inactive: 0.695 | inactive: 0.705 | inactive: 1.05 | inactive: 0.872 |
| QQMGTYGVRAA [ICAM2_Y260_R256Q] | inactive: 0.71 | inactive: 0.501 | inactive: 0.503 | inactive: 0.484 | inactive: 0.477 | inactive: 0.729 |
| LIGWRYDDPEV [HSPA9_Y128_R126W] | inactive: 1.26 | inactive: 0.921 | inactive: 1.31 | inactive: 1.13 | inactive: 1.47 | inactive: 1.25 |
| ITVPAYFNDLQ [HSPA9_Y196_S200L] | inactive: 1.27 | inactive: 1.44 | inactive: 1.07 | inactive: 1.14 | inactive: 1.15 | inactive: 2.17 |
| NNDLCYWVLEL [IARS1_Y434_P437L] | inactive: 0.812 | inactive: 1.46 | inactive: 1.16 | inactive: 1.07 | inactive: 0.879 | inactive: 2.22 |
| ILKPDYQPLAV [HYDIN_Y1072_I1077V] | inactive: 1.2 | inactive: 0.801 | inactive: 1.15 | inactive: 0.804 | inactive: 0.957 | inactive: 0.863 |
| YIPFRYPKEFQ [IDS_Y234_H229Y] | inactive: 0.855 | inactive: 0.815 | inactive: 0.899 | inactive: 0.896 | inactive: 0.892 | inactive: 0.734 |
| GAALAYGLDKS [HSPA9_Y230_A225G] | inactive: 0.85 | inactive: 0.63 | inactive: 0.695 | inactive: 0.669 | inactive: 0.838 | inactive: 0.751 |
| QDEHGYISRCF [HSPB1_Y133] | inactive: 0.654 | inactive: 0.738 | inactive: 0.53 | inactive: 0.932 | inactive: 0.663 | inactive: 0.987 |
| LLREWYMIISR [HUWE1_Y4066] | active: 3.7 | active: 3.75 | active: 3.58 | inactive: 3.05 | active: 3.66 | active: 3.77 |
| KKIMGYSIRTI [IDS_Y490_I485K] | inactive: 2.38 | inactive: 2.22 | inactive: 2.2 | inactive: 2.22 | inactive: 2.28 | inactive: 2.13 |
| SVDRDYVLKSA [HTATIP2_Y111_R106S] | inactive: 0.579 | inactive: 0.543 | inactive: 0.633 | inactive: 0.568 | inactive: 0.565 | inactive: 0.697 |
| CFTRKYTLPPG [HSPB1_Y142] | inactive: 0.676 | inactive: 0.567 | inactive: 0.625 | inactive: 0.598 | inactive: 0.491 | inactive: 0.75 |
| LLQEWYMIISR [HUWE1_Y4066_R4063Q] | inactive: 2.79 | inactive: 2.87 | inactive: 2.48 | inactive: 2.73 | inactive: 2.42 | inactive: 3.05 |
